Results: PubChem BioAssay AID485341 (National Center for Advancing Translational Sciences (NCATS), 2010)
The whole screen tested about 330,000 compounds, of which about 1,700 (0.52%) were called active. The inconclusive results got no clear call from the source; some entries with a clear call stand among them for comparison. The call rests on the fitted dose curve; in most records, active means well fitted inhibition curve with a large enough effect; inconclusive means small, poorly fitted or top-dose-only effect; inactive means no such curve, though single readings can be large or run the other way. A potency beside an inconclusive call is a rough fit, not a confirmed value.
Further: nearly all actives have a fitted effect of over 20% in size.
Potency means the concentration at half of the fitted maximal effect; tags describe the fitted curve by direction and shape.
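Wherever activity change, negative = inhibition is given: plate controls were no compound for no effect and no enzyme for full effect.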

Each compound was assayed against Beta-lactamase (Escherichia coli (strain K12)) (UniProt P00811) (assay: qHTS Inhibitors of AmpC Beta-Lactamase (assay without detergent)). Conditions: AmpC nitrocefin hydrolysis, absorbance 480 nm, 0.0001% Triton; activity change, negative = inhibition: at 57.1 µM (top of the series) unless noted.
UniProt P00811, sequence (P00811 whole entry, looked up): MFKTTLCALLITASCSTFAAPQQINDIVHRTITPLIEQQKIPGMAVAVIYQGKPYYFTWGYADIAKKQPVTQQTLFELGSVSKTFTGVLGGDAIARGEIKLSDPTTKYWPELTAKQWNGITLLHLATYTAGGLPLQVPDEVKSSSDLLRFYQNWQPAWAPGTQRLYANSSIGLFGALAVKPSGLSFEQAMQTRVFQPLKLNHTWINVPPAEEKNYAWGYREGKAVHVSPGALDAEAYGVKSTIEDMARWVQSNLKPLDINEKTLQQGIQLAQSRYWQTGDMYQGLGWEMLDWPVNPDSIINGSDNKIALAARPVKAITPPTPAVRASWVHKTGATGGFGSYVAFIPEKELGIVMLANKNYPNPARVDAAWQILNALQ
Method in brief: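 AmpC (5.3 nM in the dispensed reagent) in 20 mM phosphate pH 7.0 with 0.01% (detergent screen) or 0.0001% Triton X-100 was preincubated with compounds for 15 min at room temperature. Nitrocefin was then added from an 800 uM solution, and hydrolysis was followed at 480 nm.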
In the case of `CCCc1cc(C(=O)Nc2cccc(C(C)=O)c2)no1`, the Potency is reported as “inactive”.
For `CCC(Sc1nc(=O)cc(N)n1CCc1ccccc1)C(=O)Nc1cc(C)on1` (stereo not given), the Potency was active: 2.82 µM.
With `O=c1oc2ccc(F)cc2c2c1C1O[C@](c3ccsc3)(Cc3c1ccc1ccccc31)O2` the Potency was inconclusive: 5.62 µM [inhibitor, partial curve].
`COC(=O)/C(=C\C(=O)c1ccccc1)Nc1ccc(OC)cc1` was tested, and the Potency was inconclusive: 39.8 µM [inhibitor, single point].
For `CSc1ccccc1NC(=O)Nc1ccc(Cl)cc1`, the Potency was inconclusive: 14.1 µM [inhibitor, partial curve].
For `O=C(O)C(=O)/C(=C\c1ccc([N+](=O)[O-])cc1)c1ccc2ccccc2n1`, the Potency was “inactive”.
For `Cc1cc2[nH]c(=O)c(=O)[nH]c2cc1S(=O)(=O)N1CCN(c2cccc(C(F)(F)F)c2)CC1`, the Potency was active: 3.16 µM.
`COC(=O)c1oc2ccc(Br)cc2c1NC(C)=O` was tested, and the Potency was inconclusive: 10 µM [inhibitor, partial curve, poor fit].
For `Cc1nc2ccccn2c1/C(O)=C1\C(=O)C(=O)N(CCN(C)C)C1c1cccnc1` (stereo not given), the Potency was “inactive”.
For `COc1ccccc1C(=O)NC(=O)COC(=O)Cc1ccccc1[N+](=O)[O-]`, the Potency was inconclusive: 31.6 µM [inhibitor, single point].
For `COc1ccccc1NC(=O)CSc1nc2ccccc2n1C(C)=O`, the Potency was inconclusive: 35.5 µM [inhibitor, single point].
For `CS(=O)(=O)Nc1ccc(-c2ccc(/C=C3\SC(N)=NC3=O)o2)cc1`, the Potency was inconclusive: 22.4 µM [inhibitor, single point].
`CCCCCn1c(C(Cc2ccccc2)NC(C)=O)nc2ccccc21` (stereo not given) was tested, and the Potency was inconclusive: 50.1 µM [inhibitor, partial curve, poor fit].
`N#CCC(=O)Nc1ccc(C(=O)OCC(=O)N=c2sccn2Cc2ccccc2Cl)cc1` was tested, and the Potency was active: 10 µM.
With `CCOc1cccc(/C=N/NC(=S)NCCN2CCOCC2)c1O` the Potency was inconclusive: 11.2 µM [inhibitor, partial curve].
In the case of `O=C(CSc1nc2ccccc2n1CCc1ccccc1)c1ccc(O)c(O)c1`, the Potency is reported as active: 15.8 µM.
For `COc1cc(NC(=O)CN2C(=O)NC(C)(c3ccc4ccccc4c3)C2=O)c(C)cc1[N+](=O)[O-]` (stereo not given), the Potency was inconclusive: 7.08 µM [inhibitor, single point].
For `CCN(c1ccc(NC(=O)c2ccc(Cl)nc2)cc1)C(C)C`, the Potency was “inactive”.
In the case of `Cc1cccc(N=C2NC(=O)/C(=C/C=C/c3ccco3)S2)c1C`, the Potency is reported as active: 31.6 µM.
For `COc1ccc2[nH]c(C)c(CCN(Cc3cccs3)C(=S)Nc3cccc(F)c3)c2c1`, the Potency was active: 44.7 µM.
In the case of `CCN(c1ccccc1)S(=O)(=O)c1cccc(C(=O)OCc2nc3sc(C)c(C)c3c(=O)[nH]2)c1`, the Potency is reported as inconclusive: 1.41 µM [inhibitor, full curve].
With `Cc1ccc(NC(=O)c2c(-c3c(F)cccc3Cl)noc2C)cc1F` the Potency was inconclusive: 3.55 µM [inhibitor, single point].
In the case of `COCCn1nnnc1C(c1ccc(C)cc1)N1CCN(Cc2ccc3c(c2)OCO3)CC1` (stereo not given), the Potency is reported as “inactive”.
In the case of `O=C(CCc1nc2ccccc2c(=O)[nH]1)Nc1nnc(SCc2ccccc2F)s1`, the Potency is reported as “inactive”.
For `CCOC(=O)c1ccccc1NC(=O)COC(=O)c1c(CC)noc1C`, the Potency was inconclusive: 39.8 µM [inhibitor, single point].
For `O=C(Nc1ccccc1)Nc1nc(-c2ccccc2)cs1`, the Potency was “inactive”.
With `CCCCN(C(=O)CSc1nnc(-c2ccc(Cl)cc2)o1)c1c(N)n(CC(C)C)c(=O)[nH]c1=O` the Potency was “inactive”.
For `CCCN(CCC)CCNC(=O)c1cc2c(=O)n(C)c3ccccc3c2n1C`, the Potency was inconclusive: 7.08 µM [inhibitor, full curve, poor fit].
With `CC(C)Sc1nc(N)nc(-c2cccs2)c1C#N` the Potency was inconclusive: 5.01 µM [inhibitor, single point].
For `CCCCNC(=O)Oc1c(Br)cc2sc(=O)oc2c1Br`, the Potency was inconclusive: 39.8 µM [inhibitor, single point].
For `Cc1ncsc1C(=O)N1N=C2/C(=C/c3ccccc3)CCCC2C1c1ccccc1` (stereo not given), the Potency was “inactive”.
With `O=C(Cc1cccs1)Nc1cccc(-c2ccc3nncn3n2)c1` the Potency was “inactive”.
For `O=C1c2ccccc2-c2onc3ccc(NCc4ccco4)c1c23`, the Potency was inconclusive: 31.6 µM [inhibitor, single point].
With `O=C(/C=C/c1ccc(Br)cc1)c1ccc(NC2=NCCCS2)cc1` the Potency was active: 14.1 µM.
`CCC1C(=O)NCCN1Cc1nc(-c2ccc(C)s2)oc1C` (stereo not given) was tested, and the Potency was “inactive”.
With `Cc1nc(CS(=O)(=O)c2ccc(Cl)cc2)cc(Sc2ccc(Cl)cc2)n1` the Potency was active: 3.98 µM.
`Cc1cc(C)nc(N2CCC(C(=O)Nc3ccc4c(c3)CCC4)CC2)n1` was tested, and the Potency was “inactive”.
`Cc1cc(O)c(-c2cc(C(=O)Nc3ccc(S(=O)(=O)N4CCOCC4)cc3)[nH]n2)cc1C` was tested, and the Potency was inconclusive: 0.282 µM [inhibitor, full curve, poor fit].
In the case of `CN(C)c1ccc(NC(=O)/C=C/c2ccccc2Cl)cc1`, the Potency is reported as active: 2.51 µM.
`COC(=O)COc1cccc(NC(=O)c2cccc(C)c2)c1` was tested, and the Potency was “inactive”.
With `O=C(N/N=C/c1ccccc1C(=O)O)c1cccc(S(=O)(=O)Nc2cc(Cl)ccc2Cl)c1` the Potency was active: 12.6 µM.
In the case of `C/C(=N/NC(=O)c1cccs1)c1ccc(NC(=O)COc2ccc(Cl)cc2)cc1`, the Potency is reported as “inactive”.
With `CCc1cc(C(=O)NC(C)C2CCCO2)cs1` (stereo not given) the Potency was “inactive”.
In the case of `CNc1ccccc1C(C)(C)c1cc(-c2cccc(OC)c2)no1`, the Potency is reported as inconclusive: 1 µM [inhibitor, single point].
`CC(=O)N1CCN=C1SCc1ccc(Br)cc1` was tested, and the Potency was inconclusive: 2.82 µM [inhibitor, full curve, poor fit].
In the case of `COc1ccc(NC(=O)c2cc(S(=O)(=O)Nc3ccc(OC)cc3)cs2)cc1`, the Potency is reported as active: 11.2 µM.
With `CCCC(c1nnnn1CC1CCCO1)N1CCN(c2nc3ccccc3s2)CC1` (stereo not given) the Potency was “inactive”.
For `CCOc1cccc(C(=O)N2CCCCC2c2cccnc2)c1` (stereo not given), the Potency was inconclusive: 6.31 µM [inhibitor, single point].
`CC(C)N1CCc2c(sc(NC(=S)NC(=O)c3ccccc3)c2C#N)C1` was tested, and the Potency was “inactive”.
`CC(Oc1ccc([N+](=O)[O-])cc1)C(=O)NCC1CCCO1` (stereo not given) was tested, and the Potency was “inactive”.
`Cc1ccc2c(c1)CCCN2C(=O)c1c(C)noc1C` was tested, and the Potency was inconclusive: 6.31 µM [inhibitor, single point].
In the case of `CCOC(=O)Cc1csc(NC(=O)CSc2nc(=O)[nH]c3c2CCC3)n1`, the Potency is reported as inconclusive: 39.8 µM [inhibitor, single point].
In the case of `COc1cccc(NC(=O)CN(C)C(=O)c2cc(C)on2)c1`, the Potency is reported as inconclusive: 39.8 µM [inhibitor, single point].
`C/C(CC(=O)Nc1ccc(Cl)cc1Cl)=N\NC(=O)C(=O)N1CCCC1` was tested, and the Potency was “inactive”.
With `O=C(N/N=C/c1cc(Cl)cc([N+](=O)[O-])c1O)c1ccccc1NS(=O)(=O)c1cccs1` the Potency was inconclusive: 1.26 µM [inhibitor, full curve].
With `COc1ccccc1N1C(=O)CC(Sc2n[nH]c(-c3cccc(C)c3)n2)C1=O` (stereo not given) the Potency was active: 15.8 µM.
`Cc1ccc(C(=O)NNC(=O)c2ccccc2O)cc1S(=O)(=O)N1CCCCC1` was tested, and the Potency was active: 8.91 µM.
In the case of `COc1ccc(COC(=O)c2ccc(Cl)c(S(=O)(=O)N3CC(C)OC(C)C3)c2)cc1` (stereo not given), the Potency is reported as inconclusive: 31.6 µM [inhibitor, single point].
With `CC(C)CCNC(=O)C1C2C=CC3(CN(Cc4ccccc4Cl)C(=O)C13)O2` (stereo not given) the Potency was active: 8.91 µM.
`Cc1ccc(/C=N/NC(=O)c2cccc(NC(=O)c3ccccc3Cl)c2)o1` was tested, and the Potency was inconclusive: 15.8 µM [inhibitor, partial curve, poor fit].
With `CCN(CC)c1ccc(C(=O)OCc2cc(=O)oc3cc(O)ccc23)cc1` the Potency was inconclusive: 7.94 µM [inhibitor, partial curve].
With `COc1ccc(-c2csc(Nc3cc(C)ccn3)n2)cc1C` the Potency was “inactive”.
In the case of `CN1CCN(c2ccc(S(=O)(=O)N3CCCCC3)cc2NC(=O)/C=C/c2ccc(OC(F)F)cc2)CC1`, the Potency is reported as inconclusive: 39.8 µM [inhibitor, single point].
For `COc1ccccc1C(=O)Nc1ccc(OCc2nnc3c4ccccc4c(C)nn23)cc1`, the Potency was “inactive”.
With `FC(F)Sc1ccc(NC(=S)NC(c2ccccc2)c2ccccc2)cc1` the Potency was active: 17.8 µM.
In the case of `O=C(c1ccc(NS(=O)(=O)c2ccc(F)cc2)cc1)N1CCCCCC1`, the Potency is reported as inconclusive: 35.5 µM [inhibitor, single point].
With `CCCCNC(=S)Nc1cc([N+](=O)[O-])ccc1C` the Potency was “inactive”.
In the case of `COc1cc(C2C(C#N)=C(N)Oc3c2ccc2ccccc32)ccc1OCC(=O)Nc1cccc(C)c1` (stereo not given), the Potency is reported as inconclusive: 28.2 µM [inhibitor, single point].
For `CCOC(=O)c1cc(C(=O)c2cc(Cl)ccc2O)coc1=N`, the Potency was active: 5.01 µM.
In the case of `Cc1ccn2c(=O)nc(SCC(=O)Nc3ccc4c(c3)OCCO4)nc2c1`, the Potency is reported as inconclusive: 35.5 µM [inhibitor, single point].
In the case of `CC1CCCCN1c1nnc(NC(=O)c2cc(-c3ccc(Br)cc3)on2)s1` (stereo not given), the Potency is reported as active: 39.8 µM.
In the case of `COCCN(C(=O)COC(=O)C1(c2ccccc2)CC1)c1c(N)n(CC(C)C)c(=O)[nH]c1=O`, the Potency is reported as inconclusive: 39.8 µM [inhibitor, single point].
`Clc1ncnc2c1oc1ccccc12` was tested, and the Potency was active: 0.282 µM.
`CN1CCN(C(=O)c2cc3c(s2)-c2ccccc2S(=O)(=O)C3)CC1` was tested, and the Potency was inconclusive: 10 µM [inhibitor, full curve, poor fit].
In the case of `O=C(c1cccnc1)n1nc(-c2ccco2)nc1NCc1cccs1`, the activity change, negative = inhibition is reported as inactive: -4.18% [at 2.29 µM].
